Assay results taken from PubChem BioAssay AID1865 (National Center for Advancing Translational Sciences (NCATS), 2009).
Screen size: about 280,000 compounds; about 540 (0.19%) were called active. This list was built around the results that the source calls inconclusive (neither active nor inactive); the mix of calls is not that of the screen. The call rests on the fitted dose curve; in most records, active means well fitted activation curve with a large enough effect; inconclusive means small, poorly fitted or top-dose-only effect; inactive means flat fitted curve, though single readings scatter. Potencies of inconclusive entries are doubtful fits and often do not repeat.

Test: Quantitative High-Throughput Screen for Regulators of Epigenetic Control; further: nearly all actives have a fitted effect of over 60% in size; on GFP activation: % of control where 0% means no effect
Conditions: murine LDR cells, GFP reporter derepression, 30 h; GFP activation: at 53.9 µM (top of the series)
Outline: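 Murine LDR cells carrying a silenced, genomically integrated CMV-driven GFP reporter were exposed to compound for 30 hours at 37 C. After PBS washes, GFP-positive cells (20–120 um objects) were counted by laser-scanning microplate cytometry.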
Potency means the concentration at half of the fitted maximal effect; tags describe the fitted curve by direction and shape.

SMILES	Potency	GFP activation
Cc1ccc(/C=C/c2nc3ccccc3[nH]2)o1	inconclusive: 31.6 µM [activator, single point]	
CCSc1ncc(Cl)c(C(=O)Nc2sc3c(c2C(=O)NC)CCCC3)n1	active: 7.08 µM	
Oc1ccc2oc3c(c2c1C=NCc1ccncc1)CCCC3		inactive: 1.28%
COc1ccc(Oc2nc3c(C)cccn3c(=O)c2/C=C(\C#N)c2nc3ccccc3[nH]2)cc1	active: 3.98 µM	
COc1ccc(CNC(=O)c2nc(S(=O)(=O)Cc3ccccc3)ncc2Cl)cc1	inconclusive: 5.62 µM [activator, single point]	
COc1cc2[nH]c(=O)n(CCCCCC(=O)N3CCN(c4ccc(Cl)cc4)CC3)c(=O)c2cc1OC	inconclusive: 14.1 µM [activator, single point]	
O=c1[nH]c(CSc2nc3ccccc3[nH]2)nc2c1cnn2-c1ccccc1		inactive: 1.89%
CCCOc1cccc(C2c3c(oc4ccc(F)cc4c3=O)C(=O)N2Cc2ccc3c(c2)OCO3)c1 (stereo unspecified)		inactive: 1.92%
COc1cccc(NC(=O)Nc2ccc3c(c2)N(C)C(=O)CS3)c1		inactive: -1.04%
CCOC(=O)c1c(C)[nH]c(C)c1S(=O)(=O)N1CCC(C(=O)Nc2ccc(C)c(Cl)c2)CC1	inconclusive: 12.6 µM [activator, partial curve]	
Cc1c(NC(=O)c2ccc(Br)o2)cccc1-c1nc2ccccc2o1		inactive: 4.76%
COc1cc(C2NC(=O)c3c(sc4c3CCN(C)C4)N2)ccc1OC(=O)c1ccccc1 (stereo unspecified)		inactive: 8.07%
CC(=O)C1=C(C)Nc2ncnn2C1c1ccc(Cl)cc1Cl (stereo unspecified)	inconclusive: 35.5 µM [activator, single point]	
CCc1ccc2nc(SCC(=O)N3CC(=O)Nc4ccccc43)c(C#N)cc2c1	active: 17.8 µM	
CCCCC(=O)Nc1c(O)c2ccccc2[nH]c1=O		inactive: -9.52%
Cn1cc(C(=O)N/N=C/c2ccc([N+](=O)[O-])cc2)c2ccccc21	inconclusive: 31.6 µM [activator, single point]	
CCn1c(C)c(C2=CCN(S(=O)(=O)c3ccc(C)cc3)CC2)c2ccccc21	inconclusive: 25.1 µM [activator, single point]	
CCOC(=O)c1cccc(NC(=O)c2cc(S(=O)(=O)N3CCCC3)cn2C)c1		inactive: 0%
COCCNC(=S)NNc1ccccc1[N+](=O)[O-]		inactive: -4.81%
CCN1/C(=C2\OC(=S)N(C)C2=O)C=Cc2ccccc21	inconclusive: 3.16 µM [activator, single point]	
CN(C)S(=O)(=O)c1cc(NC(=O)CN2CCCc3ccccc32)ccc1Cl	inconclusive: 28.2 µM [activator, single point]	
